The supplement of paper PMC3334620
Over roughly 33,000 sequences, “E-score (-0.5 to 0.5)” has its median near -0.013; the highest 2% begin near 0.3. The list shows a part of the results.

biological target: T1, Msn1 (UniProt P22148); test: PBM E-score (8-mer binding enrichment) (E-score (-0.5 to 0.5)); higher = stronger / more preferred TF binding; most listed sequences are background and not binding sites; settings: protein concentration: 200 nM; construct: GST-full length
T1 sequence: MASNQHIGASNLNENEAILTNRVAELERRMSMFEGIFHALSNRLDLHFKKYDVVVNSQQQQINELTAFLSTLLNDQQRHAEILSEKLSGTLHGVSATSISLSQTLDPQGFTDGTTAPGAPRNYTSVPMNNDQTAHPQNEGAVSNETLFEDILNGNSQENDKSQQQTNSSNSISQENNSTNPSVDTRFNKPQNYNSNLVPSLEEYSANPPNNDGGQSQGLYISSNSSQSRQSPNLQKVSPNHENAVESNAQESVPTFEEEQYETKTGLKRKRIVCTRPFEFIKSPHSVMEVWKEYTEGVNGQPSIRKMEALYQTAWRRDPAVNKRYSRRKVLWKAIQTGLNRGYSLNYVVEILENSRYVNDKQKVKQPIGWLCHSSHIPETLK
Summary of the method: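 Using PURExpress in vitro transcription/translation, GST-tagged yeast transcription factors were made in full-length or DNA-binding-domain form. These were applied at about 100-200 nM to double-stranded universal all-10-mer Agilent arrays, and bound protein was detected with fluorescent anti-GST. Scans were normalised with masliner before the Universal PBM Analysis Suite assigned E-scores to ungapped eight-base words pooled with their reverse complements.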

| Sequence | PBM E-score |
| --- | --- |
| CGAGTAAA | 0.216 |
| CATGCAGA | -0.0066 |
| CTAGGCTA | -0.179 |
| AGCGGCAC | -0.236 |
| AATCGTAT | 0.0866 |
| AGGTGTAG | -0.211 |
| GATATTAC | 0.135 |
| AGCGGTGC | -0.223 |
| CGCGTTTC | -0.022 |
| TCCCAAGA | 0.185 |
| GTAATGCA | -0.119 |
| ACCTACAC | -0.21 |
| GACCGGCA | -0.224 |
| GTGATGAA | -0.127 |
| GTAACGCA | -0.0553 |
| CCAGAGTC | -0.0686 |
| ATGTCTTA | 0.423 |
| CCAGCTAA | -0.134 |
| ACACGGGT | 0.00665 |
| ATTCAGTA | 0.146 |
| CACATGAC | -0.0252 |
| AATAATGT | 0.19 |
| CGAACGGA | 0.0436 |
| ACAAACAT | 0.184 |
| AAAAGCTG | 0.0581 |

| Sequence | PBM E-score |
| --- | --- |
| ATAGTGAA | 0.167 |
| CGGACAAC | 0.369 |
| CCCGAGCA | -0.107 |
| GAGTACAA | 0.262 |
| GACATGGC | 0.276 |
| CATACCCG | -0.173 |
| ACACGCCC | 0.0947 |
| GGAATCAA | 0.0658 |
| CCAAGTGC | -0.302 |
| GACCCGGA | 0.0712 |
| GTACATTA | 0.278 |
| AAGGATTA | -0.104 |
| AGGTTGAC | -0.118 |
| AACTTGCG | 0.0743 |
| ATCAGACA | 0.173 |
| CTAGTTAC | -0.0451 |
| CATCAGGG | 0.0197 |
| AGCAACCG | -0.00612 |
| CCGATCCA | -0.0522 |
| AATCGGCC | -0.0942 |
| GGTGATTA | 0.00544 |
| AACGGGCT | -0.132 |
| ACCCTCCA | -0.203 |
| AAAGTTTC | -0.0484 |
| CAGGTGAG | -0.27 |

| Sequence | PBM E-score |
| --- | --- |
| GGCAATGA | -0.0827 |
| GAGTCGCA | -0.262 |
| CTGACTTC | 0.0219 |
| GGCCCCAC | -0.282 |
| CACGCTGG | -0.156 |
| CAAGTACA | 0.298 |
| ACTAGCAT | -0.0656 |
| ACATATTC | 0.34 |
| CAGACGGA | 0.113 |
| AAACCTGT | 0.143 |
| AAGGCATG | -0.181 |
| AGGCGTAA | -0.194 |
| CGCATACC | 0.15 |
| CCTTCTCC | -0.272 |
| CCAACGTC | -0.195 |
| AACGAAGC | -0.0499 |
| CGACACGA | 0.274 |
| CTCAATTA | 0.0647 |
| CTAATAAG | -0.0321 |
| ACCTGCAT | 0.043 |
| ATCCTCAT | -0.167 |
| AGGCAGTC | -0.112 |
| GGTCCGCA | 0.00679 |
| CGTAATAC | -0.0604 |
| CCGCTGGA | 0.00741 |

| Sequence | PBM E-score |
| --- | --- |
| ACCCCGTG | -0.205 |
| ATTATTCG | 0.175 |
| GTAAGGAA | -0.0151 |
| CGAGCGAG | 0.2 |
| GTAGCATA | -0.154 |
| TTAAAAAA | 0.286 |
| CACACTAC | -0.188 |
| AATTTAAC | 0.0583 |
| CCGTATCC | -0.0713 |
| CATGTGCC | 0.146 |
| ATCCACGG | 0.14 |
| GTCCCGTA | 0.153 |
| GTCAAACA | -0.0362 |
| CCCATGGC | -0.293 |
| AATTTGCA | -0.149 |
| GCGTAACA | 0.0738 |
| ATAAACAA | 0.202 |
| AGTTTGTG | -0.0605 |
| CTCATGAA | -0.00812 |
| CTCCTTCA | -0.3 |
| CAGGGGCA | -0.139 |
| AGGGATAT | -0.113 |
| AATCTTAC | 0.0531 |
| AGTCCATA | 0.171 |
| CGGCAGCC | -0.118 |

| Sequence | PBM E-score |
| --- | --- |
| GATCCGAC | -0.123 |
| ACTCGGCT | -0.102 |
| CATGGTGG | -0.157 |
| GCAGACCC | -0.109 |
| CGTATTCC | -0.00514 |
| AAGCACAT | 0.0253 |
| CTTTCCAA | 0.00908 |
| AACTCGGA | 0.131 |
| AGACGTCA | -0.118 |
| AGTCTTAC | -0.0459 |
| ACGTCCGA | -0.00037 |
| AGCTTGCA | -0.132 |
| AAGTTTGA | 0.124 |
| CACGAGCC | -0.145 |
| AATCGTGT | 0.133 |
| AAGATGTC | 0.252 |
| AACGCACG | 0.228 |
| TCACACAA | 0.0114 |
| GAATCTGA | -0.0387 |
| ACAATTTA | 0.183 |
| AATCCCGG | 0.132 |
| GGCAGCAA | -0.111 |
| GCGAACGA | 0.0301 |
| CTTCTGCA | -0.141 |
| ACACCCTC | -0.343 |

| Sequence | PBM E-score |
| --- | --- |
| ATGCGACA | 0.217 |
| GGCCGGCC | 0.0825 |
| CTCCAGGC | -0.178 |
| CTTGCGGC | -0.119 |
| AGTGTTAG | 0.0782 |
| TCAGGCCA | -0.139 |
| CCACGGCA | -0.0291 |
| AGTCATTG | 0.0331 |
| ATACCTTA | 0.0247 |
| TAAGGCAA | -0.0333 |
| AGATACCA | 0.063 |
| CCATGTAA | 0.135 |
| AGCGGAAA | 0.0968 |
| ACTCTCAT | -0.0427 |
| ACAGGGAG | -0.226 |
| GGCTGTCA | -0.197 |
| CCGAACTC | 0.093 |
| AGTGCAGG | -0.108 |
| ACTGAAGA | 0.147 |
| AGGGGGAG | -0.436 |
| AGCCGTTG | 0.121 |
| CCCGGCGC | -0.206 |
| CCGTTGCC | -0.194 |
| ATCTGAAT | 0.0826 |
| CACCGAAA | 0.116 |

| Sequence | PBM E-score |
| --- | --- |
| ACCAATTG | -0.0886 |
| ATCTGCGG | -0.0472 |
| CTCACAGC | -0.0585 |
| AGAACCGG | -0.0453 |
| ATCCCCAG | -0.208 |
| ACGCCTCC | -0.274 |
| AAATCCTA | -0.0454 |
| ACCCGACG | -0.0255 |
| GCGCCTAA | 0.129 |
| ACTAACCA | -0.00287 |
| CATAGGAG | -0.0671 |
| AGAGATTA | 0.0388 |
| CCTCTTTC | -0.0391 |
| CAGTTTGG | -0.196 |
| GCGTGAGC | -0.0269 |
| GTCCACCA | 0.078 |
| CGATATGC | 0.136 |
| GGTTCTAA | 0.105 |
| CATTACAC | 0.161 |
| CTCTAACA | 0.0458 |
| CATTCTGG | -0.152 |
| CTGAAGGA | -0.176 |
